Experimental data taken from publication PMC12820563, “FoxP3 forms a head-to-head dimer in vivo and stabilizes its multimerization on adjacent microsatellites”.
This is one part of the list.

target: T1, MBP-FoxP1dN (Mus musculus, UniProt P58462 326-579); assay: PD-seq (MBP pull-down with sequencing); 20 mM Tris-HCl pH 7.5, 100 mM NaCl, 1.5 mM MgCl2, 0.4 uM protein, 0.1 uM dsDNA library, 30 min, room temperature, amylose pull-down; high values mean tight binding; conditions: protein: recombinant; tags: His6-MBP; chain copies: 2; dsDNA, one strand shown
T1 sequence: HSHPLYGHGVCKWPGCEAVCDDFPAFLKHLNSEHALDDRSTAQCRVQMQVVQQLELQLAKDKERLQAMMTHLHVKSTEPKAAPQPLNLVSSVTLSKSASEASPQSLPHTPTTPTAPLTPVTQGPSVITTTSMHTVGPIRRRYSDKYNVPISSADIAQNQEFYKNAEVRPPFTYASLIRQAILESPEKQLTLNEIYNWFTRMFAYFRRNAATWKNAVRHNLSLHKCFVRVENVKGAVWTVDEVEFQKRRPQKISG
In short: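 Amylose resin was used to capture complexes formed during 30 min at room temperature in Tris pH 7.5 buffer with NaCl and MgCl2 between 0.4 µM His6-MBP-tagged mouse FoxP3 or FoxP1 fragment lacking the N-terminus, expressed in E. coli, and 0.1 µM Klenow-filled double-stranded degenerate DNA library. After three washes, the DNA was released with proteinase K, barcoded by PCR and sequenced on Illumina. Binding is pooled-replicate reads-per-million enrichment, pull-down over input.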

Row | Sequence | binding signal
1 | GATGATTGTTCTCCCAGCTGATGAATTTGTATGGTCGAGTAAACAAATTTTCCTAATCTTTCTGTTCAAGCGCCATCTAC | 1.2 RPM ratio (pull-down/input)
2 | GATGATTGTTCTCCCAGCTGATGAATTGGACAAGTCGAGTAAACAAATTTTCCTAATCTTTCTGTTCAAGCGCCATCTAC | 0.807 RPM ratio (pull-down/input)
3 | GATGATTGTTCTCCCAGCTGATGAATTCGACTCTTCGAGTAAACAAATTTTCCTAATCTTTCTGTTCAAGCGCCATCTAC | 0.898 RPM ratio (pull-down/input)
4 | GATGATTGTTCTCCCAGCTGATGAATTGGATGGTTCGAGTAAACAAATTTTCCTAATCTTTCTGTTCAAGCGCCATCTAC | 0.856 RPM ratio (pull-down/input)
5 | GATGATTGTTCTCCCAGCTGATGAATTGGACAACTCGAGTAAACAAATTTTCCTAATCTTTCTGTTCAAGCGCCATCTAC | 0.962 RPM ratio (pull-down/input)
6 | GATGATTGTTCTCCCAGCTGATGAATTCCCAGGGTCGAGTAAACAAATTTTCCTAATCTTTCTGTTCAAGCGCCATCTAC | 0.717 RPM ratio (pull-down/input)
7 | GATGATTGTTCTCCCAGCTGATGAATTGGGCCACTCGAGTAAACAAATTTTCCTAATCTTTCTGTTCAAGCGCCATCTAC | 0.841 RPM ratio (pull-down/input)
8 | GATGATTGTTCTCCCAGCTGATGAATTTTGTCGATCGAGTAAACAAATTTTCCTAATCTTTCTGTTCAAGCGCCATCTAC | 0.973 RPM ratio (pull-down/input)
9 | GATGATTGTTCTCCCAGCTGATGAATTATAGTCTTCGAGTAAACAAATTTTCCTAATCTTTCTGTTCAAGCGCCATCTAC | 0.967 RPM ratio (pull-down/input)
10 | GATGATTGTTCTCCCAGCTGATGAATTGGAGCCATCGAGTAAACAAATTTTCCTAATCTTTCTGTTCAAGCGCCATCTAC | 0.868 RPM ratio (pull-down/input)
11 | GATGATTGTTCTCCCAGCTGATGAATTGCCTGGGTCGAGTAAACAAATTTTCCTAATCTTTCTGTTCAAGCGCCATCTAC | 0.843 RPM ratio (pull-down/input)
12 | GATGATTGTTCTCCCAGCTGATGAATTACTGCTGTCGAGTAAACAAATTTTCCTAATCTTTCTGTTCAAGCGCCATCTAC | 1.22 RPM ratio (pull-down/input)
13 | GATGATTGTTCTCCCAGCTGATGAATTTACGCCCTCGAGTAAACAAATTTTCCTAATCTTTCTGTTCAAGCGCCATCTAC | 1.1 RPM ratio (pull-down/input)
14 | GATGATTGTTCTCCCAGCTGATGAATTCCGGTTATCGAGTAAACAAATTTTCCTAATCTTTCTGTTCAAGCGCCATCTAC | 0.934 RPM ratio (pull-down/input)
15 | GATGATTGTTCTCCCAGCTGATGAATTATGTGTATCGAGTAAACAAATTTTCCTAATCTTTCTGTTCAAGCGCCATCTAC | 1.92 RPM ratio (pull-down/input)
16 | GATGATTGTTCTCCCAGCTGATGAATTCTAGAGTTCGAGTAAACAAATTTTCCTAATCTTTCTGTTCAAGCGCCATCTAC | 0.856 RPM ratio (pull-down/input)

Row | Sequence | binding signal
17 | GATGATTGTTCTCCCAGCTGATGAATTAACCAACTCGAGTAAACAAATTTTCCTAATCTTTCTGTTCAAGCGCCATCTAC | 0.968 RPM ratio (pull-down/input)
18 | GATGATTGTTCTCCCAGCTGATGAATTCGTAGATTCGAGTAAACAAATTTTCCTAATCTTTCTGTTCAAGCGCCATCTAC | 0.83 RPM ratio (pull-down/input)
19 | GATGATTGTTCTCCCAGCTGATGAATTCTTTACGTCGAGTAAACAAATTTTCCTAATCTTTCTGTTCAAGCGCCATCTAC | 0.992 RPM ratio (pull-down/input)
20 | GATGATTGTTCTCCCAGCTGATGAATTGACTTCCTCGAGTAAACAAATTTTCCTAATCTTTCTGTTCAAGCGCCATCTAC | 0.911 RPM ratio (pull-down/input)
21 | GATGATTGTTCTCCCAGCTGATGAATTTGCACTATCGAGTAAACAAATTTTCCTAATCTTTCTGTTCAAGCGCCATCTAC | 1.15 RPM ratio (pull-down/input)
22 | GATGATTGTTCTCCCAGCTGATGAATTCCTAGTATCGAGTAAACAAATTTTCCTAATCTTTCTGTTCAAGCGCCATCTAC | 0.902 RPM ratio (pull-down/input)
23 | GATGATTGTTCTCCCAGCTGATGAATTTGTACTGTCGAGTAAACAAATTTTCCTAATCTTTCTGTTCAAGCGCCATCTAC | 1.08 RPM ratio (pull-down/input)
24 | GATGATTGTTCTCCCAGCTGATGAATTAACGCATTCGAGTAAACAAATTTTCCTAATCTTTCTGTTCAAGCGCCATCTAC | 1.23 RPM ratio (pull-down/input)
25 | GATGATTGTTCTCCCAGCTGATGAATTCAGTTTATCGAGTAAACAAATTTTCCTAATCTTTCTGTTCAAGCGCCATCTAC | 1.49 RPM ratio (pull-down/input)
26 | GATGATTGTTCTCCCAGCTGATGAATTCGGTGAGTCGAGTAAACAAATTTTCCTAATCTTTCTGTTCAAGCGCCATCTAC | 0.85 RPM ratio (pull-down/input)
27 | GATGATTGTTCTCCCAGCTGATGAATTCACGTAATCGAGTAAACAAATTTTCCTAATCTTTCTGTTCAAGCGCCATCTAC | 1.38 RPM ratio (pull-down/input)
28 | GATGATTGTTCTCCCAGCTGATGAATTAGCAGCCTCGAGTAAACAAATTTTCCTAATCTTTCTGTTCAAGCGCCATCTAC | 0.873 RPM ratio (pull-down/input)
29 | GATGATTGTTCTCCCAGCTGATGAATTTGCTATTTCGAGTAAACAAATTTTCCTAATCTTTCTGTTCAAGCGCCATCTAC | 1.17 RPM ratio (pull-down/input)
30 | GATGATTGTTCTCCCAGCTGATGAATTATCGGATTCGAGTAAACAAATTTTCCTAATCTTTCTGTTCAAGCGCCATCTAC | 0.92 RPM ratio (pull-down/input)
31 | GATGATTGTTCTCCCAGCTGATGAATTCATGGCCTCGAGTAAACAAATTTTCCTAATCTTTCTGTTCAAGCGCCATCTAC | 0.841 RPM ratio (pull-down/input)
